# In a collection of fitness landscapes (doi:10.1126/science.1257360):
# Some of the results follow.
# B1: PhoQ; a variant is named by its letters at X, in order, P23837 (parent)
# chain: MKKLLRLFFPLSLRVRFLLATAAVVLVLSLAYGMVALIGYSVSFDKTTFRLLRGESNLFYTLAKWENNKLHVELPENIDKQSPTMTLIYDENGQLLWAQRDVPWLMKMIQPDWLKSNGFHEIEADVNDTSLLLSGDHSIQQQLQEVREDDDDAEMTHSVAVNVYPATSRMPKLTIVVVDTIPVELKSSYMVWSWFIYVLSANLLLVIPLLWVAAWWSLRPIEALAKEVRELEEHNRELLNPATTRELTSLVRNLNRLLKSERERYDKYRTTLTDLTHSLKTPLXXLQXXLRSLRSEKMSVSDAEPVMLEQISRISQQIGYYLHRASMRGGTLLSRELHPVAPLLDNLTSALNKVYQRKGVNISLDISPEISFVGEQNDFVEVMGNVLDNACKYCLEFVEISARQTDEHLYIVVEDDGPGIPLSKREVIFDRGQRVDTLRPGQGVGLAVAREITEQYEGKIVAGESMLGGARMEVIFGRQHSAPKDE
# Variants of: B1
# Experiment: enrichment ratio after two sorts for PhoP signalling (ratio (wild type AVST 3.29)); higher = more functional
# Conditions: with PhoP (E. coli)
row,Variant,enrichment ratio
1,THYD,0.791
2,FTRR,≤ 0.25
3,PFFN,4.98
4,TQTS,7.29
5,HFYW,≤ 0.25
6,ATRN,≤ 0.25
7,IDAM,≤ 0.25
8,RDYD,≤ 0.25
9,SITC,5.56
10,SKKD,≤ 0.25
11,RRIY,≤ 0.25
12,HKAK,≤ 0.25
13,PCAV,≤ 0.25
14,QRCV,≤ 0.25
15,ETYN,≤ 0.25
16,SPWE,≤ 0.25
17,WDCK,≤ 0.25
18,MGTA,≤ 0.25
19,SCMF,12.3
20,LLCK,≤ 0.25
21,RYKT,≤ 0.25
22,DECY,≤ 0.25
23,LIAR,≤ 0.25
24,AMGS,4.58
25,SCHK,≤ 0.25

row,Variant,enrichment ratio
1,TGYD,≤ 0.25
2,GILR,12.2
3,FWQK,≤ 0.25
4,AILA,9.78
5,VHNW,≤ 0.25
6,ATQW,≤ 0.25
7,TLCG,0.756
8,VDWF,≤ 0.25
9,HQSM,≤ 0.25
10,SSSN,12.1
11,VEIC,4.5
12,QCIH,≤ 0.25
13,DCPH,≤ 0.25
14,AAIH,≤ 0.25
15,RIRS,≤ 0.25
16,HMQC,≤ 0.25
17,LMYW,≤ 0.25
18,MTIL,0.687
19,VAIG,≤ 0.25
20,FYDM,≤ 0.25
21,NPVG,≤ 0.25
22,WTNN,≤ 0.25
23,PQLW,≤ 0.25
24,GCEP,≤ 0.25
25,KHAH,≤ 0.25

row,Variant,enrichment ratio
1,STMH,8.42
2,RPPG,≤ 0.25
3,RLSI,≤ 0.25
4,RLCP,≤ 0.25
5,RPQY,≤ 0.25
6,ATRP,≤ 0.25
7,SRSL,≤ 0.25
8,GWYW,≤ 0.25
9,PACW,≤ 0.25
10,FMPS,≤ 0.25
11,HNEC,≤ 0.25
12,FNKW,≤ 0.25
13,MGFR,≤ 0.25
14,HGDP,≤ 0.25
15,PPDP,≤ 0.25
16,IYDC,≤ 0.25
17,YCVK,≤ 0.25
18,NMSY,≤ 0.25
19,VCPL,≤ 0.25
20,FRVG,≤ 0.25
21,FFTN,≤ 0.25
22,AAMM,13
23,GDVN,≤ 0.25
24,REVC,≤ 0.25
25,HFWE,≤ 0.25

row,Variant,enrichment ratio
1,ALRG,≤ 0.25
2,SNRH,≤ 0.25
3,QVAH,≤ 0.25
4,RMDN,≤ 0.25
5,EEDL,≤ 0.25
6,LCRD,≤ 0.25
7,EAPE,≤ 0.25
8,LLAG,≤ 0.25
9,TEIG,18.6
10,FFNW,≤ 0.25
11,NDDW,≤ 0.25
12,VHNH,≤ 0.25
13,LQYI,≤ 0.25
14,LHNP,≤ 0.25
15,SFAC,≤ 0.25
16,RCHT,≤ 0.25
17,LQDE,≤ 0.25
18,MFVW,≤ 0.25
19,EEYV,≤ 0.25
20,DHAW,≤ 0.25
21,INQD,≤ 0.25
22,RCLV,≤ 0.25
23,STPY,≤ 0.25
24,RYTH,≤ 0.25
25,PKHW,≤ 0.25

row,Variant,enrichment ratio
1,SKLL,14
2,LAHA,≤ 0.25
3,RFKW,≤ 0.25
4,DMGR,≤ 0.25
5,SAII,2.76
6,LHLT,≤ 0.25
7,FGYF,≤ 0.25
8,EMWT,≤ 0.25
9,SPQC,≤ 0.25
10,SWKL,≤ 0.25
11,YEPE,≤ 0.25
12,MLPD,≤ 0.25
13,NGCQ,≤ 0.25
14,MFSW,≤ 0.25
15,EAPY,≤ 0.25
16,DFKN,≤ 0.25
17,TEAW,3.79
18,SYMK,≤ 0.25
19,ENDV,≤ 0.25
20,QLMH,≤ 0.25
21,NWAR,≤ 0.25
22,QRSQ,≤ 0.25
23,ECNI,≤ 0.25
24,NVVY,≤ 0.25
25,MISM,6.82

row,Variant,enrichment ratio
1,VHST,≤ 0.25
2,YGSR,≤ 0.25
3,HPIT,≤ 0.25
4,WFFC,≤ 0.25
5,VQQE,≤ 0.25
6,NFTW,≤ 0.25
7,NHYW,≤ 0.25
8,PGHL,≤ 0.25
9,FPSW,0.359
10,PTVD,≤ 0.25
11,EQQL,0.602
12,GFLL,≤ 0.25
13,DDSQ,≤ 0.25
14,DCWY,≤ 0.25
15,RQAQ,≤ 0.25
16,MHIG,≤ 0.25
17,RPST,≤ 0.25
18,SFQW,≤ 0.25
19,MRTN,≤ 0.25
20,VWKA,≤ 0.25
21,IRPL,≤ 0.25
22,NDPD,≤ 0.25
23,LFHH,≤ 0.25
24,IAFM,≤ 0.25
25,GIIE,≤ 0.25

row,Variant,enrichment ratio
1,HMEL,≤ 0.25
2,RVSD,≤ 0.25
3,NYGW,≤ 0.25
4,SPCE,≤ 0.25
5,WRCA,≤ 0.25
6,SHWF,≤ 0.25
7,IWGC,≤ 0.25
8,VLAN,≤ 0.25
9,TCQC,5.67
10,PKQL,≤ 0.25
11,HWTF,0.277
12,PWEG,≤ 0.25
13,KPKR,≤ 0.25
14,LHSN,≤ 0.25
15,TEEM,≤ 0.25
16,HLSY,≤ 0.25
17,TKVV,16.7
18,ATTN,20.6
19,QDLT,≤ 0.25
20,SIVN,8.13
21,EGWG,≤ 0.25
22,DQPF,≤ 0.25
23,YSTC,≤ 0.25
24,LANH,≤ 0.25
25,GREF,≤ 0.25

row,Variant,enrichment ratio
1,IPSN,≤ 0.25
2,ERCF,≤ 0.25
3,YENA,≤ 0.25
4,MRLF,≤ 0.25
5,RTWT,≤ 0.25
6,DIHW,≤ 0.25
7,HMFR,≤ 0.25
8,DSAC,≤ 0.25
9,HDVH,≤ 0.25
10,RIQK,≤ 0.25
11,KKID,≤ 0.25
12,WGKS,≤ 0.25
13,WCRR,≤ 0.25
14,EDSV,≤ 0.25
15,NALC,≤ 0.25
16,AHIF,≤ 0.25
17,TDIQ,≤ 0.25
18,MTLD,≤ 0.25
19,AHYM,≤ 0.25
20,DDNL,≤ 0.25
